Reference: PubChem BioAssay AID588855 (National Center for Advancing Translational Sciences (NCATS), 2011)
Among all 410,000 compounds or so, about 5,000 (1.2%) were called active. Inconclusive means that the source gave no clear call. Such entries were picked first, then a sample of the others. Calls follow the shape of the dose curve; as a rule, active = well fitted inhibition curve with a large enough effect; inconclusive = small, poorly fitted or top-dose-only effect; inactive = no such curve, though single readings can be large or run the other way. Potencies beside an inconclusive call are fits to weak or partial responses and may not hold up.
Potency is read from the fitted curve at half-maximal effect; tags tell the direction and shape of the fitted curve.

Test: qHTS for Inhibitors of TGF-b; also: nearly all actives have a fitted effect of over 65% in size
Settings: HepG2 CAGA-GFP TGF-b/SMAD3 reporter, GFP fluorescence, 18 h, TGF-beta stimulated, 500 pg/mL final; series mostly up to 46.1 µM; activity, negative = inhibition: at the top concentration
Description: TGF-b is a main component in the TGF-b signaling pathway which plays diverse roles in cellular and development pathways. TGF-b is the mediated by the transcription factors Smads. Although the Smad-dependent pathway is the primary canonical TGF-b signaling node, TGF-b1 can also activate alternative signaling pathways, including those involving MAPK (ERK, JNK and p38). This interaction may mediate or enhance Smad-dependent responses, or can exert Smad-independent effects. The complexity of this signaling cascade allows the TGF-b superfamily to perform unique, overlapping or redundant functions. We believe that targeting the TGF-beta pathway at the Smad-transcription factor level may eliminate the consequences of disrupting the entire pathway and offer specificity without affecting other signaling pathways. Smad3 is the primary transducer of TGF-b's signals and Smad3 regulates many functions attributed to TGF-b signaling. We hypothesize that Smad3 inhibitors will selectively eliminate Smad3-specific TGF-beta signals without undesired off-target effects. We aim to identify Smad3-small molecule antagonists using a quantitative high throughput screening (qHTS) approach.
A high-throughput assay was developed to screen the NIH Molecular Libraries Small Molecule Repository (MLSMR). This is a cell based assay, where TGF-b is tagged with GFP. A counterscreen is run that looks at cytotoxicity (please see summary AID).
MH087449NIH Chemical Genomics Center [NCGC]
NIH Molecular Libraries Probe Centers Network [MLPCN]
Assay Submitter (PI): Sushil Rane, National Institute of […]
Suspensions of trypsinized HEPG2 CAGA-GFP cells were dispensed into white, tissue culture-treated, solid 1536-well plates at 5uL/well (1000 cells/well final concentration) in DMEM medium supplemented with 1% FBS. Plates were incubated at 37 degrees C for 2 hours, after which 23 nL of compounds or DMSO were delivered to each well using a pin tool. One uL of recombinant TGF-beta in DMEM (1% FBS) was then dispensed (500 pg/mL final concentration), and plates were incubated at 37 degrees C for 18 hours. The plates were measured on an Acumen eX3 Explorer plate reader for GFP fluorescence (ex488/em500-530). GFP values were calculated by determining the mean GFP fluorescence of individual cells, and compiling these values for each well to determine a total well GFP signal. The %Activity was determined from the corrected fluorescence values. A titration of the known TGF-B inhibitor SB431542 was included to monitor plate performance, while unstimulated HEPG2 (-TGF-B) control wells were used to normalize %Activity of identified inhibitors; unstimulated wells corresponded to 100%Activity (full inhibition), while stimulated cell controls (+DMSO) were used to normalize 0%Activity (no inhibition).
Concentration-response curves were fitted to the signals arising from the resulting fluorescence. The concentration-effect curves were then classified based on curve quality (r2), response magnitude and degree of measured activity, and compounds were subsequently categorized based on their curve class.
With `CS(=O)(=O)Nc1ccc(C(=O)Nc2cccc([N+](=O)[O-])c2)cc1` the “activity, negative = inhibition” value was inactive: 2.94%. With `NS(=O)(=O)Oc1ccccc1` the “activity, negative = inhibition” value was inactive: 1.06%. With `CCOC(=O)C1=C(C)N=c2sc(=Cc3ccc(OCC(=O)O)cc3)c(=O)n2C1c1ccc(SC)cc1` (stereo not drawn) the Potency was inconclusive: 35.5 µM [inhibitor, partial curve, poor fit]. In the case of `COc1ccc(C)cc1S(=O)(=O)N1c2ccc(C)cc2C2CN(C)CCC21` (stereo not drawn), the “activity, negative = inhibition” value is reported as inactive: -12.1%. In the case of `COc1ccc(NC(=O)c2c(NC(=O)COc3ccc(Cl)cc3)sc3c2CCCCC3)cc1`, the “activity, negative = inhibition” value is reported as inactive: 9.7%. With `CCCCC(=O)Nc1cccc(-c2csc(-c3ccccc3)n2)c1` the Potency was inconclusive: 35.5 µM [inhibitor, single point]. For `O=C(NCC1(c2ccccc2)CCCC1)C1(c2ccccc2)CCCC1`, the Potency was inconclusive: 10 µM [inhibitor, partial curve, poor fit]. For `CCN(CC)CCOC(=O)c1ccc(NC(=O)c2nn(-c3ccc(C)cc3)c(=O)c3c2c2ccccc2n3C)cc1`, the Potency was active: 4.47 µM. In the case of `CSCCC1NC(=O)N(CC(=O)N2N=C(c3ccc(Cl)cc3)CC2c2ccco2)C1=O` (stereo not drawn), the Potency is reported as inconclusive: 11.2 µM [inhibitor, partial curve]. With `COc1ccc(C(CNC(=O)c2cc(F)c(F)c(F)c2F)N2CCOCC2)cc1` (stereo not drawn) the “activity, negative = inhibition” value was inactive: -20.4%. For `CC(C)Cc1nc(SCC(=O)N2CCCCC2)c2c(=O)n(C)c(=O)n(C)c2n1`, the Potency was inconclusive: 17.8 µM [inhibitor, single point]. In the case of `CC1(c2nnc(Cc3ccccc3)o2)CC(c2ccccc2[N+](=O)[O-])=NO1` (stereo not drawn), the Potency is reported as inconclusive: 25.1 µM [inhibitor, single point]. For `O=C(NCCCN1CCN(c2ccc(F)cc2)CC1)c1cc2c(s1)-c1ccccc1OC2`, the Potency was inconclusive: 15.8 µM [inhibitor, single point]. With `Cc1cc(C)cc(-n2c(SC(C)C(=O)NCc3ccc4c(c3)OCO4)nc3ccccc3c2=O)c1` (stereo not drawn) the “activity, negative = inhibition” value was inactive: -1.67%. With `C[C@@H]1CCCCO[C@@H](CN(C)S(=O)(=O)c2cn(C)cn2)[C@@H](C)CN([C@H](C)CO)C(=O)c2cc(N(C)C)ccc2O1` the Potency was inconclusive: 2 µM [inhibitor, full curve]. In the case of `CC(=O)N1C[C@H]2CON(C)[C@H]2C[C@H]1c1ccc(-c2ccc(C#N)cc2)cc1`, the “activity, negative = inhibition” value is reported as inactive: 6.48%. With `CC(=O)CCc1ccc(OCC(=O)Nc2cccc(S(=O)(=O)N(C)c3ccccc3)c2)cc1` the “activity, negative = inhibition” value was inactive: -28.2%. For `O=C(NCCN1C(=O)S/C(=C\c2ccccc2)C1=O)C1CCN(S(=O)(=O)c2cccs2)CC1`, the Potency was inconclusive: 35.5 µM [inhibitor, single point]. For `CCN1C(=O)CC(C(=O)Nc2ccc(OC)cc2)SC1=Nc1ccc(C)c(C)c1` (stereo not drawn), the “activity, negative = inhibition” value was inactive: 3.41%. In the case of `Cc1nn2c(N3CCN(CCO)CC3)c3c(nc2c1-c1ccccc1)CCCC3`, the Potency is reported as inconclusive: 17.8 µM [inhibitor, single point]. In the case of `Cc1onc(-c2ccccc2Cl)c1C(=O)N1CCCc2ccccc21`, the “activity, negative = inhibition” value is reported as inactive: -6.01%. For `O=C(COc1ccc(Cl)cc1)NC1=NN(c2ccccc2)C(=O)C1`, the Potency was inconclusive: 15.8 µM [inhibitor, single point]. In the case of `COc1ccc(N2CC(NS(=O)(=O)c3ccc(F)cc3)CC2=O)cc1` (stereo not drawn), the “activity, negative = inhibition” value is reported as inactive: -0.614%. With `COc1cccc(-c2nc(CS(=O)CC(=O)N3CCN(c4cccc(C(F)(F)F)c4)CC3)c(C)o2)c1` (stereo not drawn) the Potency was active: 15.8 µM. In the case of `N#CC1=C(N)C(C#N)(C#N)[C@H](c2ccoc2)[C@H]2CN(Cc3ccccc3)CC=C12`, the Potency is reported as inconclusive: 1.41 µM [inhibitor, partial curve, poor fit]. In the case of `O=C(Nc1cccc(F)c1)C1CCCN1C(=O)OCc1ccccc1` (stereo not drawn), the “activity, negative = inhibition” value is reported as inactive: 0.642%. For `CN(C)c1ccc(C2N(c3ccc(F)cc3)C(=O)C3CCCN32)cc1` (stereo not drawn), the Potency was inconclusive: 35.5 µM [inhibitor, single point]. For `COc1ccccc1N1CCN(C(=O)CSc2nc3ccccc3o2)CC1`, the Potency was inconclusive: 3.16 µM [inhibitor, full curve, poor fit]. In the case of `Cc1ccc(NC(=S)NCC23C=CC(O2)C2C(=O)N(c4ccc(C)cc4)C(=O)C23)cc1` (stereo not drawn), the Potency is reported as inconclusive: 35.5 µM [inhibitor, single point]. In the case of `Cc1ccc(OCC(=O)Nc2ccc3nc(SCC(=O)N4CCCC4)sc3c2)cc1C`, the “activity, negative = inhibition” value is reported as inactive: -2.75%. In the case of `CCCC(=O)NC(c1ccc(N(C)C)cc1)c1ccc2cccnc2c1O` (stereo not drawn), the Potency is reported as active: 2.51 µM. With `O=C(OC(C(=O)Nc1ccc([N+](=O)[O-])cc1Br)c1ccccc1)c1ccccc1` (stereo not drawn) the “activity, negative = inhibition” value was inactive: 14%. In the case of `COc1ccc2c(c1)C(=O)N(c1ccc(C)cc1C)C(=O)C2`, the “activity, negative = inhibition” value is reported as inactive: 8.29%. In the case of `COc1ccc(OC)c(S(=O)(=O)Nc2ccc3c(c2)OCCO3)c1`, the “activity, negative = inhibition” value is reported as inactive: 7.54%. In the case of `Cc1ccc(Cn2c(=O)c3ccccc3n3c(-c4ccccc4)nnc23)cc1`, the “activity, negative = inhibition” value is reported as inactive: 1.13%. For `COCCNC(=O)COC(=O)/C=C/c1c(C)nn(Cc2ccc(Cl)cc2Cl)c1Cl`, the Potency was inconclusive: 35.5 µM [inhibitor, single point]. For `CCCCn1cnc2c1c(=O)n(C)c(=O)n2C`, the “activity, negative = inhibition” value was inactive: -23.6%. For `C[C@H](CO)N1C[C@H](C)[C@@H](CN(C)C(=O)Nc2ccc3c(c2)OCCO3)OCc2cnnn2CCCC1=O`, the “activity, negative = inhibition” value was inactive: -0.353%. With `CN(C)CCN1C(=O)C(=O)/C(=C(/O)c2ccc(S(=O)(=O)N3CCOCC3)cc2)C1c1ccc(Br)cc1` (stereo not drawn) the Potency was inconclusive: 4.47 µM [inhibitor, partial curve, poor fit]. In the case of `COc1ccc(-n2c(=O)c3c4c(sc3n(Cc3cc(=O)n5c(C)cccc5n3)c2=O)CCC4)c(OC)c1`, the Potency is reported as inconclusive: 35.5 µM [inhibitor, single point]. For `CC(C)=C(NC(=O)c1ccccc1Cl)C(=O)NCCc1nc2ccccc2[nH]1`, the “activity, negative = inhibition” value was inactive: 11.2%. For `CC(=O)Nc1cc(O)c2nonc2c1O`, the Potency was active: 0.562 µM. In the case of `Cc1ccnc(NC(=O)c2ccc(OCc3c(C)noc3C)cc2)c1`, the Potency is reported as inconclusive: 35.5 µM [inhibitor, partial curve, poor fit]. For `Cc1cc2nc(Cl)c(Cl)nc2cc1C`, the “activity, negative = inhibition” value was inactive: 17.4%. With `Cc1ccc(C(=O)NC(=C(Cl)Cl)S(=O)(=O)c2ccc(Cl)cc2)cc1` the Potency was inconclusive: 35.5 µM [inhibitor, single point]. With `Cc1ccc(CN2Cc3cccc4c3[C@@H](CC2=O)[C@H](O)[C@H](O)C4)cc1` the Potency was inconclusive: 35.5 µM [inhibitor, partial curve, poor fit]. With `CCn1c(=O)cc(SCC(=O)Nc2ccc(C)cn2)c2ccccc21` the Potency was inconclusive: 12.6 µM [inhibitor, partial curve, poor fit]. With `CCCNC(=O)c1cc(C2CCCCN2S(=O)(=O)c2cccc3cccnc23)on1` (stereo not drawn) the Potency was inconclusive: 35.5 µM [inhibitor, single point]. In the case of `Cc1ccc(-n2cc(CN3CCN(Cc4nccn4C)CC3)c(-c3ccc(F)cc3)n2)cc1`, the Potency is reported as inconclusive: 22.4 µM [inhibitor, single point]. For `COc1ccc(C(=O)Nc2oc(-c3ccccc3)c(-c3ccccc3)c2C#N)cc1OC`, the “activity, negative = inhibition” value was inactive: -4.02%. In the case of `O=C(CNC(=O)c1cccs1)N/N=C/c1c(F)cccc1Cl`, the “activity, negative = inhibition” value is reported as inactive: 0%. For `Cn1cc([N+](=O)[O-])c(C(=O)Nc2ccc3c(c2)OCCO3)n1`, the Potency was inconclusive: 35.5 µM [inhibitor, single point]. For `CC(=O)N1c2ccc(S(=O)(=O)N3CCC(C(=O)N4CCN(c5ccc(Cl)cc5)CC4)CC3)cc2CC1C` (stereo not drawn), the Potency was inconclusive: 35.5 µM [inhibitor, single point]. For `Cc1cc(=O)oc2c1c(C(F)(F)F)nn2-c1ccccc1`, the Potency was inconclusive: 15.8 µM [inhibitor, single point]. For `O=C(NCCCN1CCN(c2ccccc2)CC1)c1cc2c(s1)-c1ccccc1OC2`, the Potency was inconclusive: 22.4 µM [inhibitor, single point]. For `CC1(C(=O)Nc2cccc(C(F)(F)F)c2)Cc2c(-c3ccc4c(c3)OCO4)ccnc2O1` (stereo not drawn), the Potency was inconclusive: 25.1 µM [inhibitor, single point]. In the case of `CCC1CN(C(=O)Nc2cccc3c2CCCC3)c2cc(C)ccc2O1` (stereo not drawn), the Potency is reported as inconclusive: 8.91 µM [inhibitor, partial curve]. In the case of `CC(C)C(NC(=O)CN1C(=O)c2ccccc2S1(=O)=O)C(C)C`, the Potency is reported as inconclusive: 3.16 µM [inhibitor, single point]. For `Cc1ccc2[nH]c(-c3ccccc3)c(CN3CCN(C)CC3)c(=O)c2c1`, the Potency was inconclusive: 3.55 µM [inhibitor, partial curve, poor fit]. With `CCOC(=O)c1c(C)oc2nc(C)nc(NCCCN3CCN(c4cccc(C)c4)C(C)C3)c12` (stereo not drawn) the “activity, negative = inhibition” value was inactive: 7.48%. For `Cc1c(Cc2ccccc2)c(NCCCO)n2c(nc3ccccc32)c1C#N`, the Potency was inconclusive: 25.1 µM [inhibitor, single point]. With `OC(CNC1CCCCC1)COCCOc1ccc(Br)cc1` (stereo not drawn) the Potency was inconclusive: 15.8 µM [inhibitor, single point]. In the case of `CC1CCCC(NC(=O)C2N(CCCN3CCCC3)C(=O)C3C(C(=O)Nc4cccc(Cl)c4)C4C=CC32O4)C1C` (stereo not drawn), the “activity, negative = inhibition” value is reported as inactive: 13.8%. For `Cc1cc(C(F)(F)F)n2ncc(C(=O)O)c2n1`, the Potency was inconclusive: 2.82 µM [inhibitor, partial curve, poor fit]. For `Cc1cccc(NC(=O)c2c(Br)sc3c2CCCC3)c1`, the Potency was inconclusive: 28.2 µM [inhibitor, single point]. With `O=C(NCc1ccc(Cl)cc1)C1CCCN(c2ncnc3onc(-c4ccc(F)cc4)c23)C1` (stereo not drawn) the “activity, negative = inhibition” value was inactive: -1.35%. With `COc1ccc(Nc2nnc(-c3ccc(C)c(S(=O)(=O)N4CCOCC4)c3)c3ccccc23)cc1` the Potency was inconclusive: 4.47 µM [inhibitor, full curve]. With `COc1ccccc1N1CCN(C(=O)CSc2nc(-c3ccc(C(C)C)cc3)no2)CC1` the Potency was inconclusive: 35.5 µM [inhibitor, single point].
